PubChem BioAssay (NCATS)
Inconclusive means that the source gave no clear call. Such entries were picked first, then a sample of the others. A potency beside an inconclusive call is a rough fit, not a confirmed value. Activity calls are given as the source filed them. Unless noted, calls follow the shape of the dose curve; as a rule, active = well fitted curve in the direction sought with a large enough effect; inconclusive = small, poorly fitted or top-dose-only effect, or another doubt; inactive = no such curve, though single readings can be large; an effect the other way counts as inactive or inconclusive.

Key:
[1] = target: Aldehyde dehydrogenase, mitochondrial (Homo sapiens) (UniProt P05091); assay: qHTS for Inhibitors of the Aldehyde Dehydrogenase Family (ALDH2) Confirmatory screens (AID 2061303; active = well fitted inhibition curve with a large enough effect; inconclusive = small, poorly fitted or top-dose-only effect; inactive = no such curve, though single readings can be large or run the other way; title and protocol of this record describe different tests; also: nearly all actives have a fitted effect of over 45% in size); settings: ALDH inhibition qHTS; activity change, negative = inhibition: at 45.4 µM (top of the series)
[2] = qHTS for Inhibitors of the Aldehyde Dehydrogenase Family (ALDH1A2, ALDH1A3, ALDH2, ALDH3A1) (AID 2061307); settings: ALDH inhibition qHTS; activity change, negative = inhibition: at 50.3 µM (top of the series) unless noted; also: nearly all actives have a fitted effect of over 50% in size; as to activity change, negative = inhibition: % is scaled to controls: 0 for no effect and ±100 for the full control effect; as to potency: test system not described further here
[3] = target: Aldehyde dehydrogenase, mitochondrial (Homo sapiens) (UniProt P05091); assay: qHTS for Inhibitors of the Aldehyde Dehydrogenase Family (ALDH2) Primary screen (AID 2061308); settings: ALDH2 enzyme inhibition qHTS, 1536-well; series mostly up to 56 µM; also: nearly all actives have a fitted effect of over 55% in size
[4] = target: Retinaldehyde dehydrogenase 3 (Homo sapiens) (UniProt P47895); assay: qHTS for Inhibitors of the Aldehyde Dehydrogenase Family (ALDH1A3) Confirmatory screens (AID 2061311); settings: ALDH inhibition qHTS; activity change, negative = inhibition: at 46 µM (top of the series); series mostly up to 46 µM; also: nearly all actives have a fitted effect of over 60% in size; as to activity change, negative = inhibition: % is scaled to controls: 0 for no effect and ±100 for the full control effect
[5] = target: Aldehyde dehydrogenase 1A1 (Homo sapiens) (UniProt P00352); assay: qHTS for Inhibitors of the Aldehyde Dehydrogenase Family (ALDH1A1) Confirmatory screens (AID 2061316); settings: ALDH inhibition qHTS; activity change, negative = inhibition: at 47.3 µM (top of the series); series mostly up to 47.3 µM; also: nearly all actives have a fitted effect of over 65% in size
[6] = target: Retinaldehyde dehydrogenase 3 (Homo sapiens) (UniProt P47895); assay: qHTS for Inhibitors of the Aldehyde Dehydrogenase Family (ALDH1A3) Primary screen (AID 2061315); settings: ALDH inhibition qHTS; activity change, negative = inhibition: at 56 µM (top of the series) unless noted;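 as to activity change, negative = inhibition: plate controls were DMSO vehicle for no effect and reference inhibitor for full effect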
[7] = target: Retinal dehydrogenase 2 (Homo sapiens) (UniProt O94788); assay: qHTS for Inhibitors of the Aldehyde Dehydrogenase Family (ALDH1A2) Confirmation screens (AID 2061314); settings: ALDH1A2 enzyme inhibition qHTS confirmation; activity, negative = inhibition: at 45.9 µM (top of the series) unless noted; series mostly up to 45.9 µM; also: nearly all actives have a fitted effect of over 65% in size
Potency is read from the fitted curve at half-maximal effect; tags tell the direction and shape of the fitted curve.

| Structure (SMILES) | Potency [1] | Potency [2] | Potency [3] | Potency [4] | Potency [5] | Potency [6] | activity change, negative = inhibition [4] | Potency [7] |
| --- | --- | --- | --- | --- | --- | --- | --- | --- |
| O=C1COc2cc([S+](=O)([O-])Nc3ccc(Cl)c(Cl)c3)c(Cl)cc2N1 | inconclusive: 25.2 µM [inhibitor, partial curve] | inconclusive: 17.9 µM [inhibitor, partial curve] | inconclusive: 11.2 µM [inhibitor, partial curve] | inconclusive: 12.7 µM [inhibitor, partial curve] | inconclusive: 35.7 µM [inhibitor, partial curve, poor fit] | – | – | – |
| COc1cc(NC(=S)N2CCN(c3cccc(C(F)(F)F)c3)CC2)nc2ccccc12 | active: 25.1 µM | inactive | inconclusive: 20 µM [inhibitor, single point] | inconclusive: 8.91 µM [inhibitor, full curve] | inconclusive: 7.12 µM [inhibitor, full curve] | – | – | – |
| Cc1c(C(=O)OCC2CCCC2)[nH]c2c1C(=O)CC(c1ccco1)C2 (stereo not drawn) | inconclusive: 7.12 µM [inhibitor, partial curve] | inconclusive: 14.2 µM [inhibitor, partial curve] | inconclusive: 39.8 µM [inhibitor, single point] | active: 15.8 µM | active: 1.13 µM | – | – | – |
| Cc1sc(NC(=O)Cc2ccc3c(c2)OCO3)nc1-c1ccc2c(c1)CCN2C | inconclusive: 0.501 µM [inhibitor, full curve, poor fit] | inconclusive: 0.112 µM [inhibitor, full curve, poor fit] | inconclusive: 14.1 µM [inhibitor, partial curve] | active: 11.3 µM | active: 3.57 µM | inconclusive: 7.08 µM [inhibitor, full curve, poor fit] | – | – |
| O=C(Cc1ccccc1)Nc1sc2c(c1C(=O)Nc1ccc(Cl)cc1)CCCC2 | inconclusive: 25.2 µM [inhibitor, partial curve] | inconclusive: 11.2 µM [inhibitor, full curve, poor fit] | inconclusive: 25.1 µM [inhibitor, single point] | inactive | active: 11.3 µM | – | – | – |
| Cc1ccc(OCCn2c(CCNC(=O)c3ccccc3N)nc3ccccc32)cc1 | inconclusive: 25.2 µM [inhibitor, partial curve] | active: 1.13 µM | inconclusive: 39.8 µM [inhibitor, single point] | inconclusive: 12.6 µM [inhibitor, full curve] | – | inactive | – | – |
| COc1cccc(CNc2ccc(S(=O)(=O)Nc3ccc(N4CCNCC4)nc3)cc2)c1O | inconclusive: 22.5 µM [inhibitor, partial curve] | inconclusive: 22.5 µM [inhibitor, partial curve, poor fit] | inconclusive: 20 µM [inhibitor, partial curve] | active: 15.9 µM | inconclusive: 22.5 µM [inhibitor, partial curve] | inconclusive: 15.8 µM [inhibitor, partial curve, poor fit] | – | – |
| CC(C)(C)OC(=O)N1CCN(c2ccc(NCc3ccnc(-c4ccc(C#N)cc4)n3)cc2)CC1 | active: 0.504 µM | active: 0.357 µM | active: 0.282 µM | inconclusive: 31.8 µM [inhibitor, single point] | inconclusive: 7.12 µM [inhibitor, full curve, poor fit] | – | – | – |
| O=C1Nc2ccccc2/C1=C\c1ccc(O)c(Cl)c1 | active: 10.1 µM | inconclusive: 25.2 µM [inhibitor, single point] | inconclusive: 0.631 µM [inhibitor, full curve, poor fit] | inconclusive: 25.2 µM [inhibitor, partial curve] | inconclusive: 31.8 µM [inhibitor, single point] | – | – | – |
| COc1ccc([N+](=O)[O-])c(S(=O)(=O)c2ccccc2)n1 | active: 17.8 µM | inconclusive: 12.6 µM [inhibitor, full curve, poor fit] | active: 4.47 µM | active: 5.65 µM | – | inconclusive: 5.62 µM [inhibitor, partial curve] | – | – |
| Nc1cc(S(=O)(=O)N2CCN(S(=O)(=O)c3ccc4c(c3)OCCO4)CC2)ccn1 | inconclusive: 20.1 µM [inhibitor, partial curve] | inactive | inconclusive: 12.6 µM [inhibitor, partial curve, poor fit] | – | inconclusive: 25.2 µM [inhibitor, partial curve] | – | inactive: -14.1% [at 0.022 µM] | inconclusive: 12.7 µM [inhibitor, partial curve] |
